# Measurements as given in publication PMC4336329 (PLoS ONE, 2015).
# Hit rate of the full screen: of about 310,000 compounds, about 14,000 (4.5%) showed an effect of 50% or more. The effect is printed as a negative number. This is one part of the list.
# Target: human ether-à-go-go-related gene (hERG) potassium channel (human, UniProt Q12809)
# Assay: primary screen, population patch clamp on CHO cells stably expressing hERG
# 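Further: peak tail current of the secondary pulse compared with the same well before compound.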
# human ether-à-go-go-related gene (hERG) potassium channel, sequence (Q12809 whole entry, looked up): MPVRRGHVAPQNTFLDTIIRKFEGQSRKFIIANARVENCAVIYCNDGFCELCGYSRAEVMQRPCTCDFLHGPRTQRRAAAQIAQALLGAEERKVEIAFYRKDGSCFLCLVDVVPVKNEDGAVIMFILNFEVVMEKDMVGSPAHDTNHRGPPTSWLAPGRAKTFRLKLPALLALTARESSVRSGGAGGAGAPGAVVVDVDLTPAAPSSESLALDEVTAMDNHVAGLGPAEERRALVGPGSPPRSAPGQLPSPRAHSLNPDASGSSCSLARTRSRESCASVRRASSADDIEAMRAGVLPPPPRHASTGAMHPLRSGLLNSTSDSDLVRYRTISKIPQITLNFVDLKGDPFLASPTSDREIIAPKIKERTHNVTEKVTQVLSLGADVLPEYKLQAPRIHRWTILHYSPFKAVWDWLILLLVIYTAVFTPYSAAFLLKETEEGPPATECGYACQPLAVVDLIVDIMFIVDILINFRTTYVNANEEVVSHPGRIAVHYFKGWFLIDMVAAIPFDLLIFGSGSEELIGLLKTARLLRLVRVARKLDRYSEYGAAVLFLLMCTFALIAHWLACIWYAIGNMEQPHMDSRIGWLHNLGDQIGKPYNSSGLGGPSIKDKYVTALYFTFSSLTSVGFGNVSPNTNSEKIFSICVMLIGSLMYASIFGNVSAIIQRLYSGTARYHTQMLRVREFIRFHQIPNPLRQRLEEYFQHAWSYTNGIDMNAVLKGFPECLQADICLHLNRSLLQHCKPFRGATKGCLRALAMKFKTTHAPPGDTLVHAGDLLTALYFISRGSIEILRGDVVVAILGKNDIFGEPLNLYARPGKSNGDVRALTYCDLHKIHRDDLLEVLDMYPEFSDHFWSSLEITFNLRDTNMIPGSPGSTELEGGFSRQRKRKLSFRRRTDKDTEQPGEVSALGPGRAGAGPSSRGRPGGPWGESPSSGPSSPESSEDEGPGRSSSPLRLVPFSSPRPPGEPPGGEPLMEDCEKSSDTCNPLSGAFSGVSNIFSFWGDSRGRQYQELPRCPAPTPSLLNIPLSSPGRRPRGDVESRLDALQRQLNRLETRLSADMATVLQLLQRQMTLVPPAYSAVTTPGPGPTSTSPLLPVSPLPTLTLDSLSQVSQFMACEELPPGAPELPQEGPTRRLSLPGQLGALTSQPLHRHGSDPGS
row,Compound,"hERG current change (%, negative = inhibition) at 10uM [%]"
1,Cc1ccc(N(C)C(=O)c2cc(S(=O)(=O)N3CCc4ccccc43)cn2C)cc1,-30.7
2,CCC(=NCCCn1ccnc1)c1c(O)n(-c2ccccc2)c(=O)[nH]c1=O,7.4
3,Cc1ccc(NC2CCCN(C(=O)c3ccoc3C)C2)cc1C (stereo not shown),-1.68
4,CCc1ccccc1S(=O)(=O)Cc1ccc(C(=O)NC2CCCC2)o1,12.1
5,O=C(CSc1nnc(CNC(=O)C23CC4CC(CC(C4)C2)C3)n1-c1ccccc1)Nc1ccccc1,-1.89
6,COC(=O)/C(=C\Nc1cccc(Cl)c1C)c1ncc(C(F)(F)F)cc1Cl,7.02
7,Cc1nc(N2CCN(Cc3nc4ccccc4[nH]3)CC2)c2oc3ccccc3c2n1,-52.1
8,Cc1cccc(-c2c3c(=O)n(C)c(=O)n(C)c3cn2-c2ccc(O)cc2)c1,-6.98
9,CCOc1ccccc1NC(=O)CCS(=O)(=O)c1cccs1,14.3
10,Cc1ccc(N(C(C)C(=O)Nc2ccccc2C(=O)N2CCOCC2)S(C)(=O)=O)cc1C (stereo not shown),1.01
11,CCN(CC)c1ccc(/C=N/NC(=O)c2ccc(Br)o2)cc1,-23.7
12,CCN(CC(=O)Nc1sc2c(c1C#N)CCC(C)C2)Cc1nc2ccccc2c(=O)[nH]1 (stereo not shown),1.57
13,C#CCOCCOCCOCCNc1nc(N2CCOCC2)nc(N2CCN(C(=O)[C@H]([C@@H](C)CC)n3cc(CCC[NH+]=C(N)N)nn3)CC2)n1.[Cl-],-0.117
14,O=C(CCCc1ccccc1)Nc1nccs1,-1.81
15,COc1ccc2[nH]c(=O)c(CN(C(C)=O)c3ccc(C)c(C)c3)cc2c1,-8.03
16,Cc1cc(C)c(C)c(S(=O)(=O)N[C@@H](C)C(=O)OCC(N)=O)c1C,8.13
17,CCOC(=O)c1c(C)n(C)c2ccc(OC(=O)c3ccco3)cc12,10.1
18,CCOc1ccc(-c2nnc(N)o2)cc1,9.64
19,Cc1ccc(S(=O)(=O)N2CCOCC2)cc1C(=O)NNC(=O)c1ccoc1C,-0.103
20,CCCN(C(=O)Cc1ccc(S(=O)(=O)N2CCOCC2)s1)c1c(N)n(Cc2ccccc2)c(=O)[nH]c1=O,16.8
21,O=C(Nc1ccc(Br)cc1)N1CCCCC1,12.1
22,COCc1cc(C)nc(OCC(=O)N/N=C/c2ccc(C)o2)c1C#N,6.62

row,Compound,"hERG current change (%, negative = inhibition) at 10uM [%]"
1,CCOC(=O)C1=C(C)N(C)C(C)=C(C(=O)OCC)C1c1ccccn1,3.24
2,O=C(Nc1ccccc1)c1nnsc1S(=O)c1ccc(Cl)cc1 (stereo not shown),23.4
3,CC(C(=O)N1CCN(c2ccccc2)CC1)N1C(=O)C2CC=CCC2C1=O (stereo not shown),7.43
4,O=C(O)c1ccc(NC(=O)c2ccccc2NC(=O)c2ccccc2Cl)cc1,19.2
5,CCCCn1nnc(NC(=O)COc2cc(C)ccc2C(C)C)n1,7.24
6,Cc1ccc2c(C)c(C(=O)N(C)Cc3nccn3C)oc2c1C,-26.4
7,COc1ccc(N(CC(=O)NC(C)C)C(=O)CCC(=O)Nc2ccccn2)cc1,8.24
8,CC1CCN(Cc2cc(=O)oc3ccc4ccccc4c23)CC1,-32.7
9,C=CCc1ccccc1OCCNCc1ccccc1.O=C(O)C(=O)O,2.51
10,Cc1cc(C(=O)N2CCC(C(=O)O)CC2)c(C(F)(F)F)o1,12.9
11,CC(C)(C)c1ccc(OCCC(=O)OCC(=O)Nc2ccc(N3CCOCC3)cc2)cc1,22.7
12,COc1ccc(C2SCC(=O)N2c2c(C)n(C)n(-c3ccccc3)c2=O)cc1OC (stereo not shown),13.6
13,COc1ccc(C2C(C(=O)c3ccc(C)o3)=C(O)C(=O)N2CC2CCCO2)cc1OC (stereo not shown),20.7
14,CCOC(=O)N1CCN(c2c(NCc3ccc(F)cc3)c(=O)c2=O)CC1,-4.47
15,COc1c(/C=N/Nc2ccc(C(=O)O)cc2)c(CCN(C)C(C)=O)cc2c1OCO2,12.5
16,Cc1ccc(-c2cc(C(=O)Nc3ccc(S(=O)(=O)Nc4onc(C)c4C)cc3)c3ccccc3n2)cc1,4.48
17,O=C(NCc1cccs1)C1CCC(CNS(=O)(=O)c2ccccc2)CC1 (stereo not shown),-2.7
18,O=C(Cc1ccc(Br)c2ccccc12)N/N=C/c1ccccn1,-31
19,COc1cccc(NC(=O)N(CCN(C)C)C(C)c2cccnc2)c1 (stereo not shown),-20.7
20,O=C(N/N=C\c1c(O)ccc2ccccc12)c1cncc(Br)c1,0.171
21,CCOC(=O)CN1C(=O)S/C(=C/c2ccco2)C1=O,9.39
